Results published in PubChem BioAssay AID493208 (National Center for Advancing Translational Sciences (NCATS), 2011).
The campaign covered roughly 44,000 compounds. About 340 (0.77%) were called active. Inconclusive results (about 5%) are left out. Calls follow the shape of the dose curve; as a rule, active = well fitted inhibition curve with a large enough effect; inconclusive = small, poorly fitted or top-dose-only effect; inactive = flat fitted curve, though single readings scatter. The list shows a part of the results.

Assay: Acumen qHTS Assay for Inhibitors of the mTORC1 Signaling Pathway in MEF (Tsc2-/-, p53-/-) Cells: Sytravon;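 also: plate controls were DMSO for no effect and rapamycin for full effect; nearly all actives have a fitted effect of over 50% in size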
Conditions: phospho-rpS6 immunofluorescence/PI, 24 h; series mostly up to 38.3 µM; activity change, negative = inhibition: at the top concentration
Procedure, shortened: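 Tsc2-/-, p53-/- mouse embryonic fibroblasts (empty-vector line) exposed to compound 24 hrs at 37 C, fixed, immunostained for phospho-rpS6 and counterstained with propidium iodide. Acumen laser scanning gives % positive cells from Alexa 488/PI ratio, thresholded using 7.5 nM rapamycin; PI count gives viability.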

Structure (SMILES) | activity change, negative = inhibition
CCOC(=O)c1ccc(NS(=O)(=O)c2ccc(-c3cc(C)no3)cc2)cc1 | inactive: -12.8%
Cc1ccc(C)c(NC(=O)c2cc(S(=O)(=O)N3CCCc4ccccc43)ccc2F)c1 | inactive: 8.46%
COc1ccc(Cn2ccc3nc(C)c(C(=O)Nc4cc(C)cc(C)c4)cc3c2=O)cc1 | inactive: 0.0558%
COc1ccccc1CCNC(=O)c1ccc(-c2nc(CSc3ccc(C)cc3)c(C)o2)cc1 | inactive: -7.84%
CSc1ncc(C(=O)Nc2c(C)cccc2C)c(-c2ccccc2)n1 | inactive: -0.877%
Cc1nc2ccccc2c(=O)n1-c1ccc(NC(=O)c2cccc([N+](=O)[O-])c2)cc1 | inactive: -2.34%
CCC1CN(C(=O)N2CCC(C(=O)NCCc3ccccc3Cl)CC2)c2cc(C)ccc2O1 (stereo not given) | inactive: 0%
COc1cc(NC(=O)CN2c3ccccc3S(=O)(=O)c3ccccc32)cc(OC)c1 | inactive: -4.09%
CCCC(O)c1nc2ccccc2n1Cc1ccccc1OC (stereo not given) | inactive: 2.18%
CCOCCCn1c(SCC(=O)OCC)nc2c(sc3ccccc32)c1=O | inactive: -5.11%
Cc1cccc(C(C)C)c1NC(=O)C1CCCN1S(=O)(=O)c1cccc2nsnc12 (stereo not given) | inactive: 1.11%
Cc1ccc(C(=O)CSc2nc(-c3ccccc3)nc3c2CCCC3)c(C)c1 | inactive: -2.14%
CCCCn1cc(S(=O)(=O)c2ccc(OC)cc2)c(=O)c2cc(CC)ccc21 | inactive: -5.91%
COc1ccc(CCNC(=O)C2CCC(CNS(=O)(=O)c3ccc(C)cc3)CC2)cc1OC (stereo not given) | inactive: -5.84%
CNC(=O)C1CCC(Cn2c(=O)c3sccc3n(CC(=O)Nc3ccc(C)c(C)c3)c2=O)CC1 (stereo not given) | inactive: -1.47%
O=S(=O)(c1ccccc1)c1nnn2c1nc(NC1CCCCC1)c1sccc12 | inactive: 4.1%
COc1ccc(-c2cc(C)no2)cc1S(=O)(=O)N1CCc2ccccc21 | inactive: -6.6%
Cc1ccc(Cl)cc1NC(=O)Nc1nnc(N(C)Cc2ccccc2)s1 | inactive: -0.39%
Cn1c(=O)c2c(SCC(=O)Nc3ccccc3C(F)(F)F)nc(C3CCCC3)nc2n(C)c1=O | inactive: 5.76%
Cc1ccc(CN(C(=O)c2ccccc2)c2ccccn2)o1 | inactive: -7.48%
O=C(O)CCCCn1c(SCC(=O)Nc2ccccc2C(F)(F)F)nc2ccsc2c1=O | inactive: -4.63%
Cc1ccc(NC(=O)CSc2nc(=O)n(CCN3CCOCC3)c3c2CCC3)c(C)c1 | inactive: -0.798%
Cc1ccc(OCC(=O)Nc2nnc(S(=O)(=O)N3c4ccccc4CC3C)s2)cc1 (stereo not given) | inactive: -4.42%
Cc1ccc(C(=O)Nc2ccc(S(=O)(=O)N3CCC(c4nc5ccccc5s4)CC3)cc2)cc1 | inactive: 2.45%

Structure (SMILES) | activity change, negative = inhibition
Cc1ccc(NC(=O)c2nc(S(C)(=O)=O)ncc2N(Cc2ccco2)Cc2cccs2)c(C)c1 | inactive: -0.298%
CC(=O)N1CCc2nc3sc(C(=O)c4ccc(F)cc4)c(N)c3c(C(F)(F)F)c2C1 | inactive: -9.56%
CCc1ccc(NC(=O)C(=O)NCC(c2cccnc2)N2CCN(c3ccc(F)cc3)CC2)cc1 (stereo not given) | inactive: 0%
CC(=O)c1cccc(NC(=O)c2nc(-c3ccccc3)n(-c3cccc(Cl)c3)n2)c1 | inactive: -0.17%
Cc1nnc(N2CCC(C(=O)N3CCCCC3)CC2)c2nn(-c3ccc(Cl)cc3)c(C)c12 | inactive: -2.23%
Cc1ccc(OCCCCn2nnc3sc4c(c3c2=O)CCCC4)cc1 | inactive: -0.0543%
CC(=O)c1cc(-c2ccccc2)n(CCC(=O)NCc2ccc(C)cc2)c1C | inactive: 0.399%
CCOc1ccccc1Nc1sc(C(=O)c2ccccc2)c(N)c1C(=O)Nc1ccccc1 | inactive: -6.24%
COc1ccc(-c2nn3c(=O)cc(CN4CCN(C(=O)c5ccc(OC)c(OC)c5)CC4)nc3s2)cc1 | inactive: 6.17%
CCOc1ccccc1CNc1ccc2cc(S(=O)(=O)N3CCC(C)CC3)ccc2n1 | inactive: -1.74%
COc1ccc(-c2noc(N(c3nc(-c4ccc(OC)c(OC)c4)no3)c3ccccc3OC)n2)cc1OC | inactive: 5.88%
CC(C)(C)c1ccc(C(=O)Nc2ccc3c(c2)CCCN3C(=O)c2cccs2)cc1 | inactive: 7.44%
CCOc1ccccc1NC(=O)c1ccc2c(Cl)c3c(nc2c1)CCC3 | inactive: 1.2%
COC(=O)c1ccc(NC(=O)CSc2nc(C)cc(C)c2C(=O)Nc2ccccc2)cc1 | inactive: 0.554%
Cc1nc(-c2ccc(S(=O)(=O)Nc3ccc(C#N)cc3)cc2)co1 | inactive: -0.509%
COc1cc(NS(=O)(=O)c2cnc(N)nc2)cc(OC)c1 | inactive: -1.59%
COc1cc(C(=O)OCc2cc(=O)n3nc(C4CCCCC4)sc3n2)cc(OC)c1OC | inactive: -2.36%
CCc1cccc(NC(=O)c2cn3c4c(ccc(Cl)c4c2=O)OC(C)C3)c1 (stereo not given) | inactive: 0.0538%
COc1cc2cc(CNc3ccccc3)c(=O)n(CC(=O)Nc3ccccc3)c2cc1OC | inactive: -6.97%
COc1ccc(N2CCN(C(=O)c3cccc(-n4c(C)nc5cccnc54)c3)CC2)cc1 | inactive: -12.3%
O=C(NCCC1=CCCCC1)c1ccc2c(c1)N(Cc1ccccc1F)C(=O)c1ccccc1S2=O (stereo not given) | inactive: -5.47%
CCc1cccc(-n2c(=O)c3cccnc3n2CC(=O)NCc2ccccc2)c1 | inactive: 2.02%
CCn1nnc2cc(C(=O)Nc3ccc(Cl)cc3C)ccc21 | inactive: -4.98%
Cc1ccc2nc(N3CCN(c4ccccc4)CC3)c3nnnn3c2c1 | inactive: -8.19%

Structure (SMILES) | activity change, negative = inhibition
CCCNS(=O)(=O)c1ccc2nc(NC(=O)c3ccc(F)cc3)sc2c1 | inactive: -9.98%
COc1cccc(NC(=O)Cn2c(=O)cc(C)c3c(C)nn(-c4cccc(F)c4)c32)c1 | inactive: -9.64%
CC1CCCCN1C(=O)Cn1c(=O)n(-c2ccc(Cl)cc2)c(=O)c2c3c(sc21)CCC3 (stereo not given) | inactive: -7.49%
CCN1CCN(C(c2ccc(OC)cc2)c2c(O)cc(C)n(Cc3ccco3)c2=O)CC1 (stereo not given) | inactive: 0.266%
COc1ccc(CNC(=O)c2ccc(NC(=O)N3CC4CCCN4c4ccccc43)cc2)cc1 (stereo not given) | inactive: 9.22%
CCN(CC)c1nc2c(-c3cccc(Br)c3)nnn2c2ccccc12 | inactive: -3.76%
COc1cccc(NC(=O)C2CCN(S(=O)(=O)c3cccc4nonc34)CC2)c1 | inactive: -12.3%
COCCCn1c(=N)c(C(=O)NCC2CCCO2)cc2c(=O)n3cc(C)ccc3nc21 (stereo not given) | inactive: -6.31%
Cc1ccc2c(=O)cc(C(=O)Nc3ccc(S(=O)(=O)N4CCC(C)CC4)cc3)oc2c1C | inactive: 4.72%
CC(=O)c1ccc(S(=O)(=O)Nc2ccc(-c3ccc(N4CCCCCC4)nn3)cc2)cc1 | inactive: 3.57%
COc1cc(C2CC(=O)Nc3c2c(C)nn3-c2nc(C)cc(C)n2)cc(OC)c1O (stereo not given) | inactive: -0.769%
COc1cccc(-c2nn3c(=O)cc(CN4CCN(S(=O)(=O)c5ccc(C)cc5)CC4)nc3s2)c1 | inactive: -7.75%
Cc1ccc(CSc2nnc(-n3c(=O)c(C#N)cc4c(=O)n5cccc(C)c5nc43)s2)cc1 | inactive: -2.9%
COc1ccc(-c2nc3ccccc3n3c(-c4cccc(C)c4)c4c(=O)n(C)c(=O)n(C)c4c23)cc1 | inactive: 0.374%
CSc1nc(=O)c2c(n1C)NC(=O)CC2c1ccccc1OC(C)C (stereo not given) | inactive: -2.95%
CSc1ccc(CNC(=O)C2CCCN(S(=O)(=O)N(C)c3ccc(F)cc3)C2)cc1 (stereo not given) | inactive: 0.976%
COc1cccc(-c2cn3c(n2)sc2cc(C(=O)NCCCc4ccccc4)ccc23)c1 | inactive: 5.83%
Cc1nn(Cc2ccc(Cl)c(Cl)c2)c(C)c1NC(=O)c1noc2c1CCc1ccccc1-2 | inactive: -21.9%
CCOc1ccc(CCNC(=O)CCCn2c(=O)c3cccn3c3cccnc32)cc1OCC | inactive: 0.613%
COC(=O)CC1Oc2ccccc2-n2cc(-c3ccc(C)cc3)nc21 (stereo not given) | inactive: -4.64%
Nc1c(C(=O)NCc2ccc(Cl)cc2Cl)nnn1Cc1ccc(Br)cc1 | inactive: 0%
COc1ccc(OCC(=O)Nc2cc(-c3ccccc3F)nn2-c2ccccc2)cc1 | inactive: 3.79%
CCc1ccc(CNC(=O)c2cc3cc(S(=O)(=O)N4CCCCC4)ccc3n2C)cc1 | inactive: 0.518%
CCCn1ccc2c(OCC(=O)Nc3cc(C)ccc3C)cccc2c1=O | inactive: -6.15%

Structure (SMILES) | activity change, negative = inhibition
Cc1ccc(S(=O)(=O)NCC2CCC(C(=O)NCc3ccc(F)cc3)CC2)cc1 (stereo not given) | inactive: 2.12%
COc1ccc(C)cc1NC(=O)C1CCN(S(=O)(=O)c2c(C)noc2/C=C/c2ccco2)CC1 | inactive: 2.8%
O=C(Nc1ccc(F)cc1F)C(Cc1ccccc1)N1Cc2ccccc2C1=O (stereo not given) | inactive: 5.17%
COc1cccc(-n2c(-c3ccc(Cl)cc3)cc3c2CC(C)(C)CC3=O)c1 | inactive: -7.71%
O=C(CCC(=O)N1CC2CCCN2c2ccccc21)NCc1cccc(Cl)c1 (stereo not given) | inactive: -28.2%
COc1cc2c(=O)n(Cc3ccccc3Cl)c(=O)n(CC(=O)Nc3ccccc3)c2cc1OC | inactive: 1.28%
Cc1ccc(C(=O)Nc2nc3ccc(S(=O)(=O)N4CCCC4)cc3s2)cc1 | inactive: -0.0251%
Cc1ccc(-c2nnc(SCC(=O)NC3CCCC3)nc2-c2ccc(C)cc2)cc1 | inactive: -2.1%
COc1ccc(CN2C(=O)c3oc4ccc(F)cc4c(=O)c3C2c2ccc(O)cc2)cc1 (stereo not given) | inactive: -10.6%
CCOc1ccc(NC(=O)CCC(=O)N2CC(C)Oc3ccc(C)cc32)cc1 (stereo not given) | inactive: -2.14%
CCCCn1cc2c(c1-c1ccccc1Br)c(=O)n(C)c(=O)n2C | inactive: -4.05%
Cc1nc(N2CCOCC2)c2c(C(=O)NCCc3ccccc3)c(C)oc2n1 | inactive: -0.513%
Cc1ccc(C(=O)n2nc(-c3ccco3)nc2NCc2cccs2)cc1 | inactive: -3.71%
CCOC(=O)C1CCN(S(=O)(=O)c2cc3c4c(c2)CC(=O)N4CCC3)CC1 | inactive: -2.85%
CCN(CC)CCNC(=O)c1nn(-c2ccc(OC)c(Cl)c2)c(=O)c2c1c1ccccc1n2C | inactive: -6.87%
CN(C)S(=O)(=O)n1cc(/C=C(\NC(=O)c2ccccc2Cl)C(=O)NCCCn2ccnc2)c2ccccc21 | inactive: -3.72%
O=C(NCCc1ccccc1)C1(c2cccs2)CCOCC1 | inactive: 0.803%
O=C(NCCc1ccccc1Cl)c1ccc2c(c1)nc1n2CCOC1 | inactive: -9.53%
CCc1nn(C(C)C(=O)N2CCN(c3cccc(C(F)(F)F)c3)CC2)c(=O)c2cc3occc3n12 (stereo not given) | inactive: 0.667%
COc1cccc(C(=O)N2c3nc(-c4ccco4)nn3C3(CCCCC3)[C@@H]3CCCC[C@@H]32)c1 | inactive: -2.75%
COc1cc(OC)cc(-c2nc3nc(C)c(CCC(=O)Nc4ccc(F)cc4F)c(C)n3n2)c1 | inactive: 2.93%
CCCNC(=O)c1c(C)nn(-c2cccc(C)c2)c1-n1cccc1 | inactive: 5.08%
CCc1ccccc1NC(=O)CSCc1cnn(-c2ccccc2)c1-n1cccc1 | inactive: -10.3%
